Consider 42 compounds from ChEMBL document CHEMBL4888484, “Replenishing the malaria drug discovery pipeline: Screening and hit evaluation of the MMV Hit Generation Library 1 (HGL1) against asexual blood stage Plasmodium falciparum ,using a nano luciferase reporter read-out” (2022).

Hit rate of the full screen: of about 150,000 compounds, about 540 (0.36%) showed an effect of 50% or more. This is one part of the list.

The term % Inhibition denotes the drop in the measured response relative to a control, in per cent.

The test concerns Plasmodium falciparum. Description: Primary screen in NF54 nanoGlo assay, in single point, at 2uM, 72h; a lower Z score goes with more inhibition. It is filed as functional, Erythrocyte. As to conditions: timepoint 72 hour.
As for `CN(C)C(=O)[C@]12CN(C(=O)c3ccccc3)C[C@H]1CN(S(=O)(=O)c1ccc(F)cc1)C2`, the “% Inhibition” value was -5% and the Z score was 0.63.

In the case of `C[C@H](NC(=O)N1CCCC12CCN(C)CC2)c1cccc(O)c1`, the “% Inhibition” value is reported as -13% and the Z score is 2.41.

As to `O=C(C1CC1c1cccnc1)N(CCN1CCCC1)c1ccccc1` (centres undefined), the “% Inhibition” value stood at 2% and the Z score is -0.18.

As for `OCC1(CCCc2ccccc2)CCN(C2CCOCC2)CC1`, the “% Inhibition” value is -10% and the Z score came out at 1.9.

On to `COCC(C)(C)C(=O)Nc1ccn(CC(F)F)n1`, for which the “% Inhibition” value turned out to be 7% and the Z score is recorded as -0.9.

Turning to `Clc1ccc(COc2cccc(CNCc3ccco3)c2)c(Cl)c1`, the “% Inhibition” value is -29% and the Z score is on record as 3.45.

Regarding `Cc1cccc(CC(=O)Nc2cc(C)nn2-c2ccc(C)nn2)c1`, the “% Inhibition” value was -11% and the Z score amounted to 0.9.

In the case of `O=C(c1cc2ccccn2c1)N1CCOC[C@@]12CCOC2`, the “% Inhibition” value was found to be 13% and the Z score is given as -1.19.

On to `CC(CCC1CCCO1)NC(=O)c1ccc(OCC(F)F)nc1` (centres undefined), for which the “% Inhibition” value was -7% and the Z score is listed as 0.87.

`Cc1noc(C)c1S(=O)(=O)NC1(C(=O)Nc2ccsc2)CCCC1`: the “% Inhibition” value is -8% and the Z score is reported as 1.08.

As to `C[C@@]1(C(=O)NCCCn2cccn2)CCCO1`, the “% Inhibition” value is listed as -7% and the Z score worked out at 0.85.

On to `O=S(=O)(c1ccccc1Br)N1C2CCC1CC(=C1CC1)C2`, for which the “% Inhibition” value came out at 8% and the Z score is listed as -1.03.

For the compound `CCN1CC[C@H]2OCCN(Cc3cnc(N(C)C)c4ccccc34)[C@H]2C1`, the “% Inhibition” value is on record as -6% and the Z score turned out to be 1.03.

Consider `CCc1nc(CNS(=O)(=O)CC2CCCC2)cs1`, for which the “% Inhibition” value is on record as -6% and the Z score came to 1.28.

As to `Cc1cccc(C(=O)N(Cc2cccs2)c2cccc(Cl)c2)c1`, the “% Inhibition” value is given as 15% and the Z score is -1.75.

For `CCN1CC(=O)N([C@H]2CN(C)Cc3ccccc32)C1=O`, the “% Inhibition” value is reported as -14% and the Z score is recorded as 1.44.

In the case of `Cn1nccc1C(=O)N1CCC[C@H](c2nc(-c3ccccc3)no2)CCNC(=O)CC1`, the “% Inhibition” value stood at 2% and the Z score is on record as -0.46.

In the case of `O=C(CN1CCC(N2CC(=O)N(CC(F)(F)F)C2=O)CC1)Nc1nccs1`, the “% Inhibition” value is -4% and the Z score is reported as 0.46.

In the case of `c1ccc(-c2ncn(Cc3noc([C@@H]4CCCO4)n3)c2-c2ccsc2)cc1`, the “% Inhibition” value was -19% and the Z score is listed as 2.3.

With `Cc1ccc(NS(=O)(=O)c2ccc(-c3cc(C(F)(F)F)n[nH]3)s2)c(Cl)c1`, the “% Inhibition” value was -3% and the Z score stood at 0.65.

With `CCOC[C@@H]1CC(F)(F)CN1C1CN(C(=O)c2cc(C)n[nH]2)C1`, the “% Inhibition” value is listed as -18% and the Z score worked out at 2.06.

For the compound `Cc1ncsc1C(=O)N[C@H]1CC(=O)N(CC(C)(C)C)C1`, the “% Inhibition” value is reported as 3% and the Z score was -0.47.

Regarding `O=C(Nc1cccc2ccccc12)c1ccc2nsnc2c1`, the “% Inhibition” value was -8% and the Z score is 1.58.

With `Cc1nnc2ccc(-c3cccc(NS(=O)(=O)c4ccc5c(c4)OCCO5)c3)nn12`, the “% Inhibition” value is given as 6% and the Z score is given as -0.83.

Take `Cc1cc(C)c(C(=O)N2CCC[C@H](C(=O)NCc3cccnc3)C2)[nH]1`: the “% Inhibition” value is on record as -5% and the Z score was 0.63.

Turning to `COc1ccc(OCC(=O)N2CCC[C@H]2c2ccc3c(c2)OCCCO3)cc1`, the “% Inhibition” value is reported as 2% and the Z score was -0.3.

For the compound `CCc1nc(C(=O)Nc2ccccc2N(C)C)c[nH]1`, the “% Inhibition” value is on record as 21% and the Z score is -2.32.

With `CCN(Cc1ccccn1)C(=O)NCc1ccc(C2CC2)cc1F`, the “% Inhibition” value is listed as -7% and the Z score came to 0.94.

As for `O=C(NC1CCC(Oc2cnccn2)CC1)c1ccon1` (centres undefined), the “% Inhibition” value is -7% and the Z score is given as 0.66.

Regarding `CCC(CC)N1CCN(S(C)(=O)=O)CC1`, the “% Inhibition” value was -9% and the Z score is listed as 0.78.

Consider `Cc1nonc1CN[C@@H](Cc1ccccc1)C1CCCCC1`, for which the “% Inhibition” value is recorded as 13% and the Z score is -2.47.

`COc1ccc(OC(C)CNC(=O)C2CCCC(F)(F)C2)cc1` (centres undefined): the “% Inhibition” value is reported as -10% and the Z score was 1.12.

For the compound `CN(C)S(=O)(=O)NCCn1nc(-c2ccccn2)n(C)c1=O`, the “% Inhibition” value is -11% and the Z score is recorded as 2.04.

As to `CCOC(=O)C1CCN(C(=O)c2cnc(-c3cccc(C)c3)nc2N(C)c2ccccc2)CC1`, the “% Inhibition” value was 3% and the Z score is -0.48.

`COC1(C)CC(N(C)C(=O)[C@@H]2Cc3cncn3C(=O)N2)C1(C)C` (some centres undefined): the “% Inhibition” value is given as -3% and the Z score stood at 0.52.

Regarding `N#Cc1ccc(NC(=O)c2cccc(-c3nc(-c4ccccc4)no3)c2)cc1`, the “% Inhibition” value was -5% and the Z score worked out at 0.86.

On to `Cc1cn([C@@H](C)c2ccccc2)nc1NC(=O)NCC1CCS(=O)(=O)CC1`, for which the “% Inhibition” value was -5% and the Z score was found to be 0.72.

For the compound `O=C1NCC2C1CCCN2C(=O)Nc1cccc(C#Cc2ccccc2)c1` (centres undefined), the “% Inhibition” value is on record as -11% and the Z score is on record as 1.42.

Turning to `O=C(c1ccc(F)cc1Cl)N1CC(Nc2cnccn2)C1`, the “% Inhibition” value is -8% and the Z score was 0.95.

With `Cc1ccccc1C(=O)N[C@@H]1CCCC[C@H]1NC(=O)C1CCN(C(=O)c2cc(C(F)(F)F)cc(C(F)(F)F)c2)CC1`, the “% Inhibition” value is -5% and the Z score worked out at 0.63.

As to `Cc1nc(N2CCCC2)nc(C)c1NC(=O)c1cccc(F)c1`, the “% Inhibition” value is listed as -5% and the Z score was found to be 0.84.

For `CCCOc1ccccc1[C@H]1CC(=O)Nc2c1c(C)nn2-c1nncc(-c2cccc(OC)c2)n1`, the “% Inhibition” value is listed as 15% and the Z score is -2.83.
